Experimental data as given in US11643413B2, “9-(2-oxacycloalkyl)-9H-purine-2,6-diamine derivatives and their use for the treatment of skin disorders” (UNIVERZITA PALACKEHO V OLOMOUCI, priority 2017, dated 2023).
At least one read-out could not be matched to a standard name with certainty.

System: transcription factor Nrf2
Assay: Activation of transcription factor Nrf2, EpRE-LUX reporter cell line
Type: cell-based
Settings: relative to dimethylfumarate; 24 h; Mean ± SD (n = 3)

SMILES	Nrf2 (compound/DMF)
CN(C)c1nc(NCc2ccco2)c2ncn(C3CCCO3)c2n1 (centres unmarked) [Compound 30, 2-(Dimethylamino)-6-furfurylamino-9-(tetrahydrofuran-2-yl)-9H-purine]	1.09 ± 0.29
CN(C)c1nc(NCc2cccc(O)c2)c2ncn(C3CCCO3)c2n1 (centres unmarked) [Compound 71, 2-(Dimethylamino)-6-(3-hydroxybenzylamino)-9-(tetrahydrofuran-2-yl)-9H-purine]	0.18 ± 0
c1coc(CNc2ncnc3nc[nH]c23)c1 [Kinetin, N^6-furfuryladenine, reference compound]	0.04 ± 0.00
CN(C)c1nc(NCc2ccco2)c2ncn(C3CCCCO3)c2n1 (centres unmarked) [Compound 114, 2-(Dimethylamino)-6-furfurylamino-9-(tetrahydro-2H-pyran-2-yl)-9H-purine]	2.53 ± 0.39
COc1cc(CNc2nc(N(C)C)nc3c2ncn3C2CCCO2)ccc1O (centres unmarked) [Compound 89, 2-(Dimethylamino)-6-[(4-hydroxy-3-methoxybenzyl)amino]-9-(tetrahydrofuran-2-yl)-9H-purine]	0.19 ± 0.02
CN(C)c1nc(NCc2cccc(O)c2)c2ncn(C3CCCCO3)c2n1 (centres unmarked) [Compound 155, 2-(Dimethylamino)-6-[(3-hydroxybenzyl)amino]-9-(tetrahydro-2H-pyran-2-yl)-9H-purine]	0.24 ± 0.07
CN(C)c1nc(NCc2ccc(O)cc2)c2ncn(C3CCCO3)c2n1 (centres unmarked) [Compound 76, 2-(Dimethylamino)-6-[(4-hydroxybenzyl)amino]-9-(tetrahydrofuran-2-yl)-9H-purine]	0.27 ± 0.15
CN(C)c1nc(NCc2ccc(O)cc2)c2ncn(C3CCCCO3)c2n1 (centres unmarked) [Compound 160, 2-(Dimethylamino)-6-[(4-hydroxybenzyl)amino]-9-(tetrahydro-2H-pyran-2-yl)-9H-purine]	0.14 ± 0.03
CN(C)c1nc(NCc2ccccc2)c2ncn(C3CCCCO3)c2n1 (centres unmarked) [Compound 150, 2-(Dimethylamino)-6-benzylamino-9-(tetrahydro-2H-pyran-2-yl)-9H-purine]	0.34 ± 0.02
CN(C)CCNc1nc(NCc2ccco2)c2ncn(C3CCCCO3)c2n1 (centres unmarked) [Compound 116, 2-{[2-(Dimethylamino)ethyl]amino}-6-furfurylamino-9-(tetrahydro-2H-pyran-2-yl)-9H-purine]	0.24 ± 0.05
CN(C)c1nc(NCc2ccccc2)c2ncn(C3CCCO3)c2n1 (centres unmarked) [Compound 66, 2-(Dimethylamino)-6-benzylamino-9-(tetrahydrofuran-2-yl)-9H-purine]	0.25 ± 0.17
CNc1nc(NCc2ccco2)c2ncn(C3CCCCO3)c2n1 (centres unmarked) [Compound 110, 2-(Methylamino)-6-furfurylamino-9-(tetrahydro-2H-pyran-2-yl)-9H-purine]	1.83 ± 0.08
CNc1nc(NCc2ccc(C)o2)c2ncn(C3CCCCO3)c2n1 (centres unmarked) [Compound 128, 2-(Methylamino)-6-[(5-methylfurfuryl)amino]-9-(tetrahydro-2H-pyran-2-yl)-9H-purine]	0.66 ± 0.14
CNc1nc(NCc2ccccc2)c2ncn(C3CCCO3)c2n1 (centres unmarked) [Compound 64, 2-(Methylamino)-6-benzylamino-9-(tetrahydrofuran-2-yl)-9H-purine]	1.21 ± 0.09
